About 6,400 (1.6%) of roughly 410,000 compounds were called active. The inconclusive results got no clear call from the source; some entries with a clear call stand among them for comparison. Calls come from the whole dose curve; as a rule, active = well fitted inhibition curve with a large enough effect; inconclusive = small, poorly fitted or top-dose-only effect; inactive = no such curve, though single readings can be large or run the other way. Potencies of inconclusive entries are left out as doubtful fits.
Target: Glucagon-like peptide 1 receptor (Homo sapiens) (UniProt P43220)
Chain of UniProt P43220 (P43220 whole entry, looked up): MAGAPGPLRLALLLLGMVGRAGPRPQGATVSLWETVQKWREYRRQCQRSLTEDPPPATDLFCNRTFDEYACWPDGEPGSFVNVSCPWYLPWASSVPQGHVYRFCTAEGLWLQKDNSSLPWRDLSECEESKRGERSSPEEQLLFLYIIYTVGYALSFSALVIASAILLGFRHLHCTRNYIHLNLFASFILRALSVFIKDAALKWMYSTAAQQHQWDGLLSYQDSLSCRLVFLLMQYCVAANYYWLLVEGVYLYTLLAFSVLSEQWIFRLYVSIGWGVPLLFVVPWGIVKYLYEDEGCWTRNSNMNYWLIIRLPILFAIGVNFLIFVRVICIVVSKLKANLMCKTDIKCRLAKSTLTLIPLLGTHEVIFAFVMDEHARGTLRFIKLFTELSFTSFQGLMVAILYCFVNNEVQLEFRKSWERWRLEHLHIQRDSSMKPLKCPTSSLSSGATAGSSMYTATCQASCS
Experiment: qHTS of GLP-1 Receptor Inverse Agonists (Inhibition Mode); note: nearly all actives have a fitted effect of over 55% in size
Settings: HEK293 GLP-1R CRE-luciferase, luminescence, 24 h, GLP-1R form is constitutively active; series mostly up to 38.3 µM
In short: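 Constitutively active GLP-1R drives a cAMP-responsive luciferase in stably transfected HEK293 cells; test compounds are added after overnight (12 h) attachment and left 24 hr, and signal loss in luminescence marks inhibition.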
Potency is the fitted concentration of half-maximal effect; tags give direction and shape of the fitted curve.

Row | SMILES | Potency
1 | COc1ccc(CN([C@H](C)CO)S(=O)(=O)N(Cc2ccccc2)[C@H](CO)C(C)C)cc1 | inconclusive [inhibitor, single point]
2 | Cc1cccc(Cn2c(SCc3ccc(C(=O)NCc4ccccc4)cc3)nc3cccnc32)c1 | inconclusive [inhibitor, single point]
3 | Brc1ccc(-c2cn3ccccc3n2)cc1 | inconclusive [inhibitor, partial curve, poor fit]
4 | CCOC(=O)N1CCN(C(=O)CN(Cc2ccccc2)S(=O)(=O)c2ccc(OC)c(C)c2)CC1 | inconclusive [inhibitor, single point]
5 | CCc1ccc(NC(=O)CN(C(=O)N2CCN(CC)CC2)S(=O)(=O)c2ccc(C)cc2)cc1 | inactive
6 | CCOC(=O)[C@]12CCCC=C1N(Cc1ccc(Cl)cc1Cl)C(=O)[C@H](CC(=O)N1CCCC1)C2 | inconclusive [inhibitor, single point]
7 | Cc1ccc(NC(=O)c2nnn(Cc3cccc(C(F)(F)F)c3)c2N)c(C)c1 | inconclusive [inhibitor, partial curve, poor fit]
8 | O=C(CC(c1ccco1)C1CCCCC1=O)c1ccccc1 (centres undefined) | inconclusive [inhibitor, single point]
9 | N#CC1CC(c2ccccc2)Nc2cc(Cl)ccc2N1 (centres undefined) | inconclusive [inhibitor, partial curve, poor fit]
10 | Cc1ccc(-c2nnc(SCC(=O)N3CC(C)CC(C)C3)o2)cc1C (centres undefined) | inconclusive [inhibitor, single point]
11 | COc1cccc(OCCNC(=O)CSc2ccc(C(F)(F)F)cc2[N+](=O)[O-])c1 | inconclusive [inhibitor, single point]
12 | CCOC(=O)C(NC(=O)c1ccccc1)C(C)(C)SCc1ccccc1 (centres undefined) | inconclusive [inhibitor, partial curve, poor fit]
13 | CC1CCN(C(=S)c2ccc(N(C)C)cc2)CC1 | inconclusive [inhibitor, partial curve, poor fit]
14 | O=[N+]([O-])c1ccccc1S(=O)(=O)NC1CCCCCCC1 | inconclusive [inhibitor, partial curve]
15 | Cc1cc(C)c2nc(C(F)(F)F)c(C#N)c(N)c2c1 | inconclusive [inhibitor, full curve, poor fit]
16 | O=C(Nc1ccc([N+](=O)[O-])cc1)C1(c2ccccc2)CCOCC1 | inconclusive [inhibitor, partial curve, poor fit]
17 | c1ccc(Cc2noc(CN3CCCN(C4Cc5ccccc5C4)CC3)n2)cc1 | inconclusive [inhibitor, single point]
18 | Cc1cccnc1NC(=S)NCc1ccco1 | inconclusive [inhibitor, single point]
19 | CCOC(=O)c1c(NC(=O)CSc2nnc(CNc3ccc(Cl)cc3)o2)sc(C)c1C | inconclusive [inhibitor, single point]
20 | CCC1=Nc2cc(C(=O)NCC3CCCO3)ccc2Sc2ccc(Cl)cc21 (centres undefined) | inconclusive [inhibitor, partial curve, poor fit]

Row | SMILES | Potency
21 | Cc1cc(N/N=C/c2ccccc2O)nc(-c2ccccc2O)n1 | inconclusive [inhibitor, single point]
22 | CCOC(=O)/C=C1\CN(Cc2cc(OC)c(OC)c(OC)c2)S(=O)(=O)c2ccc(C(F)(F)F)cc21 | inconclusive [inhibitor, partial curve, poor fit]
23 | c1ccc(Cn2ncc3c(Nc4ccccc4)ncnc32)cc1 | inconclusive [inhibitor, single point]
24 | COc1ccc(CNC(=O)CSc2nc(-c3ccccc3)cc(-c3cccs3)c2C#N)cc1 | inactive
25 | CCCCN(CCCNC(=O)C1CCN(C(=O)c2cc3sccc3n2C)CC1)Cc1ccccc1 | inconclusive [inhibitor, partial curve, poor fit]
26 | COc1ccc(N2CCN(c3cc(C(=O)Nc4cc(OC)c(OC)c(OC)c4)ncn3)CC2)cc1OC | inconclusive [inhibitor, single point]
27 | CC(Oc1ccc(C(C)(C)C)cc1)C(=O)NCC(c1ccco1)N1CCCC1 (centres undefined) | inconclusive [inhibitor, single point]
28 | O=C(O)C1CCN(c2nc(-c3ccccc3)nc3c2oc2ccccc23)CC1 | inconclusive [inhibitor, partial curve, poor fit]
29 | Cc1csc2nc(O)c(C(=O)NC3CCCCCC3)c(=O)n12 | inconclusive [inhibitor, partial curve, poor fit]
30 | CCOc1ccc2[nH]c3c(NCCc4ccc(OC)c(OC)c4)ncnc3c2c1 | inconclusive [inhibitor, partial curve, poor fit]
31 | CCOC(=O)C(C)Sc1nc2ccccc2c(=O)n1CC1CCCCC1 (centres undefined) | inconclusive [inhibitor, single point]
32 | O=C(O)CCc1c(C(=O)O)[nH]c2ccccc12 | inactive
33 | Cc1ccc(S(=O)(=O)c2ncccc2N)cc1 | inactive
34 | CN(C)C(CNC(C(=O)Nc1ccc([N+](=O)[O-])cc1Br)c1ccccc1)c1ccccc1 (centres undefined) | inconclusive [inhibitor, single point]
35 | O=C(COc1ccc(F)cc1)N1c2ccccc2CCc2ccccc21 | inconclusive [inhibitor, single point]
36 | O=S(=O)(NCCC1CC1(Cl)Cl)c1ccc(Cl)cc1 (centres undefined) | inconclusive [inhibitor, partial curve, poor fit]
37 | O=C(O)CC1S/C(=N/N=C/C=C/c2ccccc2[N+](=O)[O-])NC1=O (centres undefined) | inactive
38 | N#CC1(NC(=O)CSc2nc3ccccc3s2)CCCCC1 | inconclusive [inhibitor, single point]
39 | CCOc1cccc2sc(N3CCN(C(=O)C(C)(C)C)CC3)nc12 | inactive

From PubChem BioAssay AID624417 (National Center for Advancing Translational Sciences (NCATS), 2012)
